The whole screen tested about 360,000 compounds, of which about 11,000 (3.1%) were called active. The inconclusive results got no clear call from the source; some entries with a clear call stand among them for comparison. The call rests on the fitted dose curve; in most records, active means well fitted inhibition curve with a large enough effect; inconclusive means small, poorly fitted or top-dose-only effect; inactive means no such curve, though single readings can be large or run the other way. Potencies of inconclusive entries are left out as doubtful fits.
Biological target: Schistosoma mansoni thioredoxin glutathione reductase (TGR) (UniProt Q962Y6)
Assay: qHTS Assay for the Inhibitors of Schistosoma Mansoni Peroxiredoxins; further: nearly all actives have a fitted effect of over 60% in size
Conditions: purified TGR, DTNB reduction, TNB absorbance 405 nm; activity change, negative = inhibition: at 114 µM (top of the series) unless noted
In short: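 TGR 20 nM + NADPH 100 uM (dispensed conc.), cpd preinc 15 min RT; start with NADPH (500 uM addition) then DTNB (15 mM addition). Kinetic TNB absorbance, 405 nm filter. Four-parameter Hill fit across titration.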
On the % scale 0 is the no-effect control and ±100 the full control effect; potency means the concentration at half of the fitted maximal effect; tags describe the fitted curve by direction and shape.

Row | SMILES | activity change, negative = inhibition | Potency
1 | Cc1nn(CC(C)C)c(Cl)c1C(=O)N(c1ccc(Cl)cc1F)S(C)(=O)=O | inactive: -1.73% | –
2 | NS(=O)(=O)c1ccc2c(c1)C1C=CCC1C(C1CC=CCC1)N2 (centres undefined) | – | inconclusive [inhibitor, full curve]
3 | CC(=O)Cc1nsc(NC(=O)c2ccc(COc3ccc(C)cc3)o2)n1 | – | inconclusive [inhibitor, partial curve]
4 | Cc1ccc(NCCC(=O)c2cccs2)cc1Cl | – | active: 3.98 µM
5 | COCC(=O)N(CCc1ccccc1)Cc1cc2cc(C)ccc2nc1Cl | – | active: 39.8 µM
6 | Cc1ccc(NC(=O)C(C)Sc2nnc(C)n2C)cc1 (centres undefined) | – | inconclusive [inhibitor, partial curve, poor fit]
7 | COc1ccc(C(=O)NCC(=O)N/N=C/c2ccco2)cc1OC | – | inconclusive [inhibitor, full curve]
8 | O=C(OC1CCOC1=O)c1ccc(NS(=O)(=O)c2cccs2)cc1 (centres undefined) | inactive: 5.03% | –
9 | CC(=O)NCCC(Cc1ccccc1)c1ccco1 (centres undefined) | – | inconclusive [inhibitor, partial curve]
10 | O=C(CC1C(=O)NCCN1Cc1ccccc1F)NC1CCCCCC1 (centres undefined) | – | inconclusive [inhibitor, partial curve]
11 | COc1cc(C(=O)/C=C/c2cccnc2)c([N+](=O)[O-])cc1OC | – | inconclusive [inhibitor, partial curve]
12 | CN(CC(=O)Nc1ccccc1Br)C(=O)COc1cccc2c1OC(C)(C)C2 | inactive: 3.18% | –
13 | O=C(CN1C(=O)CSc2ccccc21)N/N=C/c1ccco1 | – | inconclusive [inhibitor, partial curve]
14 | O=S1(=O)N=C2CCCCCN2C(c2ccncc2)N1 (centres undefined) | – | inconclusive [inhibitor, partial curve]
15 | CC1CCN(CC(=O)c2ccc3c(c2)OCCO3)CC1 | – | inconclusive [inhibitor, full curve]
16 | CC(=O)Nc1ccc(C(=O)/C=C/c2ccc[nH]2)cc1 | – | inconclusive [inhibitor, partial curve]
17 | c1ccc2c3c(cc(N4CCOCC4)c2c1)OC1(N2CCOCC2)CCCCC1O3 (centres undefined) | – | inconclusive [inhibitor, partial curve]

Row | SMILES | activity change, negative = inhibition | Potency
18 | CNC(C)c1ccc(S(N)(=O)=O)cc1 (centres undefined) | – | inconclusive [inhibitor, partial curve]
19 | Cn1cccc1CN1CCN(C(=O)COc2ccccc2)CC1 | – | inconclusive [inhibitor, full curve]
20 | Oc1ccc(N=Cc2ccc(OCc3ccccc3)cc2)cc1 | – | active: 3.98 µM
21 | COc1cc(OC)c(N(C)C(=O)c2sc3nc4n(c(=O)c3c2C)CCCC4)cc1Cl | – | active: 31.6 µM
22 | CC1=C(CC(=O)O)c2cc(F)ccc2C1=Cc1ccc(S(C)(=O)=O)cc1 | – | inconclusive [inhibitor, partial curve]
23 | O=C(c1ccc(OC2CCN(C/C=C/c3ccccc3)CC2)cc1)N1CCCCC1 | – | inconclusive [inhibitor, partial curve, poor fit]
24 | O=C(NNC(=O)C1[C@H]2CCCC[C@@H]12)c1ccc(=O)oc1 (some centres undefined) | – | inconclusive [inhibitor, full curve, poor fit]
25 | O=C(CSc1ccc2c(c1)OCCO2)Nc1cccnc1 | – | inconclusive [inhibitor, partial curve, poor fit]
26 | CC(=O)Oc1ccc(N(C(C)=O)S(=O)(=O)c2ccc(C)c([N+](=O)[O-])c2)cc1 | inactive: -16.7% | –
27 | Cc1cccnc1NC(=S)Nc1ccc(F)cc1F | – | inconclusive [inhibitor, full curve]
28 | CC(=O)Nc1ccc(NC(=O)C(=O)NCC(c2ccco2)N2CCc3ccccc3C2)cc1 (centres undefined) | – | inconclusive [inhibitor, partial curve]
29 | CCCCn1c(SCC(=O)Nc2ccc(OC)cc2)nc2ccc(N3CCOCC3)cc2c1=O | – | active: 28.2 µM
30 | CCOc1cccc(C(=O)Nc2nnc(-c3ccco3)s2)c1 | – | inconclusive [inhibitor, partial curve]
31 | Clc1cccc(-c2nn3c(Cn4cnc5ccccc54)nnc3s2)c1 | inactive: -0.0445% | –
32 | Fc1ccccc1/C=C1\CCCC2=C1NC(=S)NC2c1ccccc1F (centres undefined) | – | inconclusive [inhibitor, partial curve]
33 | Cc1ccccc1CSCC(=O)NCc1ccco1 | – | inconclusive [inhibitor, partial curve]
34 | Cc1nnc(SCC(=O)c2ccc(S(=O)(=O)N3CCOCC3)cc2)n1-c1ccccc1 | – | inconclusive [inhibitor, full curve]

— PubChem BioAssay AID485364 (National Center for Advancing Translational Sciences (NCATS), 2010)
